This is an account of results in the RNAGym collection of RNA variant scans (doi:10.1093/nar/gkz1192).

The source gives no read counts; variants with many changes may rest on few reads.

Sequences and labels used below:
B1: CPEB3 Ribozyme (parent)
chain: UAACAGGGGGCCACAGCAGAAGCGUUCACGUCGCAGCCCCUGUCAGAUUCUGGUGAAUCUGCGAAUUCUGCUGUAUAUCUC

The variants in this data set derive from B1. The experiment in a line: self-cleavage, relative activity (ratio to wild type); higher = more cleavage; in vitro, sequencing. In outline:
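Relative activity was defined as the cleaved/total read fraction for a variant divided by the same fraction for the unmutated ribozyme. CPEB3 self-cleaving ribozyme libraries were made by rounds of error-prone PCR, barcoded, and transcribed in vitro with T7 RNA polymerase for 5 hours at 37°C, and cleavage ran through transcription plus a 15 min DNase I step before EDTA. Illumina sequencing of template-switched reverse transcripts gave the reads, and DNA sequencing mapped the barcodes. Averages come from three batches, using variants with at least 5 reads.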
Take A5G G9A A13U A21G U78A: the self-cleavage is 0.06.
With A5G G9A U41A U48C A65G U80C, the self-cleavage came to 0.06.
The same measure for A5G C23U U26C U31A U72C: 0.04; for A5G G9A A18G: 0.12.
Consider A5G A35U A64U, for which the self-cleavage was 0.18.
The same measure for A5G A64U A77G: 0.08; for A5G A45U A75U: 0.58.
For A5G A56C U74C U80C the value was 0.27; for A5G G8C U26C, 0.52.
For A5G G6A A15U A21G A56G U69C the value was 0.29; for A5G C11G A28G U78C, 0.49; for A5G U25A A57G G61A A75U, 0.44.
Consider A5G C12U A64G U67C, for which the self-cleavage amounted to 0.11.
The same measure for A5G G9U C37G A47U U49C G63U U72C: 0.04; for A5G A35U A45G U49C: 0.29.
As for A5G C23G U72A, the self-cleavage stood at 0.09.
Turning to A5G A47G U69A U72C, the self-cleavage was determined as 0.31.
In the case of A5G U25A U60C A64G, the self-cleavage came to 0.42.
For A5G G6A G9A G10C A35G U54A the value was 0.08.
The same measure for A5G G7U A15G U41A U51C: 0.08; for A5G U25C A28G U43A U49A: 0.47.
Consider A5G C23A U43C U51C U54C U69C, for which the self-cleavage is 0.06.
A5G G24A A57G: the self-cleavage was found to be 0.44.
Turning to A5G A56G A65G U66C, the self-cleavage is 0.27.
A5G U25A A35G U58A U66C U80C: the self-cleavage came to 0.1.
A5G G16U A64G U69A: the self-cleavage stood at 0.04.
For A5G G9A A21G U26A U41C A57G U67C the value was 0.06; for A5G G10A U41C, 0.38.
Consider A5G G6U A13U U41C U76C, for which the self-cleavage was 0.53.
In the case of A5G A28G U67C, the self-cleavage is 0.12.
Consider A5G C40A U60A A64G U72G, for which the self-cleavage is 0.19.
Take A5G A56U A64C U66C: the self-cleavage was 0.12.
For A5G G42C U58C U72C the value was 0.11; for A5G G8A U51A A64G U72C A77G, 0.05.
The same measure for A5G G6A U26C C62A: 0.28; for A5G G7U A13U G46C A56U A64U A65G: 0.07.
The same measure for A5G G16A A45G U67C: 0.14.
On to A5G G10C A20G C44A A64U U66A G70A, for which the self-cleavage was found to be 0.27.
The same measure for A5G C11U U41C U43C: 0.3; for A5G G9U U49C U54G: 0.27.
The same measure for A5G G6A A13U: 0.17; for A5G G42C U60C: 0.11; for A5G G16A A18U A64G: 0.22.
For the variant A5G U25A A45G U60A, the self-cleavage is 0.1.
In the case of A5G G30A C62A U69C, the self-cleavage is 0.18.
Consider A5G G6A C11U, for which the self-cleavage was determined as 0.31.
For A5G A65G U74A the value was 0.26.
A5G A57G A65G: the self-cleavage came to 0.33.
For A5G G6U A64U U67C the value was 0.09.
The same measure for A5G C40A A45U A64G C68G U80A: 0.35; for A5G G10C A18U C27G U31C A45G C50A: 0.23; for A5G G10A A45U A56G U74G: 0.27.
The same measure for A5G C23A A35G U60C U67C: 0.1.
On to A5G C17U U31C U60A, for which the self-cleavage stood at 0.15.
The same measure for A5G C23A U41A U58A U69C: 0.07.
A5G C38U A56C: the self-cleavage turned out to be 0.22.
The same measure for A5G G9A U26A G55A A56G A64U U67C: 0.03; for A5G G10A U49A: 0.7; for A5G C23U A35G U60C U67C U78A: 0.07.
A5G G33A U43C U58C U69C: the self-cleavage turned out to be 0.1.
The same measure for A5G A47G G70U: 0.22; for A5G A64G U67C: 0.29; for A5G C14U U25C A35U A45U: 0.05.
The same measure for A5G G10A C14U A20U A45U A75G: 0.07; for A5G G10A U67A: 0.23; for A5G C12U A75U U78C: 1.1.
As to A5G C29G U31C G36A U51A A56G U74C, the self-cleavage stood at 0.08.
For A5G U25A U43C U74A, the self-cleavage came to 0.28.
Regarding A5G G9U U25C U74C, the self-cleavage was 0.07.
In the case of A5G G16C A47U, the self-cleavage was 0.2.
The same measure for A5G G10C A20G A65U: 0.3.
In the case of A5G A65U A75U, the self-cleavage was 0.19.
The same measure for A5G G10A C17G U41C A45U U72C A75G: 0.04; for A5G C11U G30A U72C A75G: 0.22.
As for A5G C14A U58A U76C, the self-cleavage turned out to be 0.06.
The same measure for A5G G8A G33A: 0.3; for A5G A45G U60A: 0.36; for A5G G10A G19A U43C U54C A56G: 0.3.
For A5G G8A A28G the value was 0.2; for A5G G9A A20G U25A U41A U69C, 0.07.
For A5G A56G U80A the value was 0.84.
As for A5G G9A A20U A45G, the self-cleavage worked out at 0.36.
With A5G C44A A47G, the self-cleavage worked out at 0.35.
The same measure for A5G A28U U78A: 0.89.
